Patent publication US20170253656A1

The binders below were run against CD74 on CD74 positive SU-DHL-6 cells, P04233 (assay: cell-based or functional assay).

Binder | 2ND ADC CELL KILL ACTIVITY IC50 [nM]
HC 1251_B08 (wt)/LC 1337_A07 (g) (antibody, human IgG1, kappa) heavy: MQVQLVESGGGVVQPGRSLRLSCAASGFNFSDYGMHWVRQAPDKGLEWVAVIWYDGSISYYADSVKGRFTISRDNSKNTLYLQMNSLRAEDTAVYYCARGGTVEHGAVYGTDVWGQGATVTVSS[human IgG1 constant region omitted]GGSHHHHHH light: MDIQMTQSPSSVSASVGDRVTITCRASQGISSWVAWYQQKPGKAPKLLIYGASRLQSGVPSRFSGSGSGTDFTLTISSLQPEDFATYYCQQYHTYPLTFGGGTKVEIKRTVAAPSVFIFPPSDEQLKSGTASVVCLLNNFYPREAKVQWKVDNALQSGNSQESVTEQDSKDSTYSLSSTLTLSKADYEKHKVYACEVTHQGLSSPVTKSFNRGEC | 0.037
HC 1251_B08 (wt)/LC 1337_A10 (g) (antibody, human IgG1, kappa) heavy: MQVQLVESGGGVVQPGRSLRLSCAASGFNFSDYGMHWVRQAPDKGLEWVAVIWYDGSISYYADSVKGRFTISRDNSKNTLYLQMNSLRAEDTAVYYCARGGTVEHGAVYGTDVWGQGATVTVSS[human IgG1 constant region omitted]GGSHHHHHH light: MDIQMTQSPSSVSASVGDRVTITCRASQGISSWVAWYQQKPGKAPKLLIYGSSRLQSGVPSRFSGSGSGTDFTLTISSLQPEDFATYYCQQYNTYPLTFGGGTKVEIKRTVAAPSVFIFPPSDEQLKSGTASVVCLLNNFYPREAKVQWKVDNALQSGNSQESVTEQDSKDSTYSLSSTLTLSKADYEKHKVYACEVTHQGLSSPVTKSFNRGEC | 0.046
HC 1251_B08 (wt)/LC 1337_A10 (wt) (antibody, human IgG1, kappa) heavy: MQVQLVESGGGVVQPGRSLRLSCAASGFNFSDYGMHWVRQAPDKGLEWVAVIWYDGSISYYADSVKGRFTISRDNSKNTLYLQMNSLRAEDTAVYYCARGGTVEHGAVYGTDVWGQGATVTVSS[human IgG1 constant region omitted]GGSHHHHHH light: MDIQMTQSPSSLSASVGDRVTITCRASQGISSWVAWYQQKPEKAPKSLIYGSSRLQSGVPSRFSGSGSGTDFTLTISSLQPEDFATYYCQQYNTYPLTFGGGTKVEIKRTVAAPSVFIFPPSDEQLKSGTASVVCLLNNFYPREAKVQWKVDNALQSGNSQESVTEQDSKDSTYSLSSTLTLSKADYEKHKVYACEVTHQGLSSPVTKSFNRGEC | 0.017
